The text below walks through data of publication PMC4336329 (PLoS ONE, 2015).

Molecules are shown by their SMILES. Hit rate of the full screen: of about 310,000 compounds, about 14,000 (4.5%) showed an effect of 50% or more. Effects have a minus sign here. Some of the results follow.
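Note: peak tail current of the secondary pulse compared with the same well before compound.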

For the assay, the target named is human ether-à-go-go-related gene (hERG) potassium channel (human, UniProt Q12809). The assay can be described thus: primary screen, population patch clamp on CHO cells stably expressing hERG.
human ether-à-go-go-related gene (hERG) potassium channel, sequence (Q12809 whole entry, looked up): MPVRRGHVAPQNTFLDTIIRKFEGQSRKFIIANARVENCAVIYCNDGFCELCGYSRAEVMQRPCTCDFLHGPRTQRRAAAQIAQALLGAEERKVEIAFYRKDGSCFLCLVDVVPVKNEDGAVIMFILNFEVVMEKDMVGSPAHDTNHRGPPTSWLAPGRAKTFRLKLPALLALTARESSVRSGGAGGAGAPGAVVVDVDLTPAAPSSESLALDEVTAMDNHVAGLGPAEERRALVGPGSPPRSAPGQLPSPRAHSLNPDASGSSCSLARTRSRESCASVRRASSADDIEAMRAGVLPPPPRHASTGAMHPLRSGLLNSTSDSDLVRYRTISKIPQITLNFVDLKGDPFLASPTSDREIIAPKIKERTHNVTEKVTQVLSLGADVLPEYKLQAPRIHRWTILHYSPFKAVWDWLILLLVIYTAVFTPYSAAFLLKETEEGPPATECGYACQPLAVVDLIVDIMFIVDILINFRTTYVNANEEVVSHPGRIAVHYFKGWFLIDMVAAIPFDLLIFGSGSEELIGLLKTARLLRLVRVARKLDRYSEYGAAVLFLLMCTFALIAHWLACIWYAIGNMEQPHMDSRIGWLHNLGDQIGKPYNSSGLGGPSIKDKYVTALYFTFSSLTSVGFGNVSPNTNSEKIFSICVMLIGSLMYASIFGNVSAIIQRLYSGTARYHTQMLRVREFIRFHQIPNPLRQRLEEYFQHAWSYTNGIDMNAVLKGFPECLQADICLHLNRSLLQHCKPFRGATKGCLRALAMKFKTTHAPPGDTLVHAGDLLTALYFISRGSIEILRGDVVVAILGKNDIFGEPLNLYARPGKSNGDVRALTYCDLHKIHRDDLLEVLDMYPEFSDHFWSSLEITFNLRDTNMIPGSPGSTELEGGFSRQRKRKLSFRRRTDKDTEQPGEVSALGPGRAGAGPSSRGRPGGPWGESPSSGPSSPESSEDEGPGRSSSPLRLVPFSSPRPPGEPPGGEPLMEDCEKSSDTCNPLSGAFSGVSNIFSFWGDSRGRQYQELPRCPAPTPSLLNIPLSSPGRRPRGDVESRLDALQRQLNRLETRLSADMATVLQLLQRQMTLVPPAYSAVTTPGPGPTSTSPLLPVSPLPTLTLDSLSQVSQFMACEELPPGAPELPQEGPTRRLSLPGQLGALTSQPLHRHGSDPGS
`CCCCC1CCC(C(=O)Nc2ccccc2)CC1` (centres unmarked): the “hERG current change (%, negative = inhibition) at 10uM” value was determined as 2.62%.

With `Brc1ccc2c(c1)OCCOCCOCCOCCOCCO2`, the “hERG current change (%, negative = inhibition) at 10uM” value was -76.4%.

Consider `O=C(NCCCN1CCOCC1)c1cccc(S(=O)(=O)N2CCN(c3ccccc3)CC2)c1`, for which the “hERG current change (%, negative = inhibition) at 10uM” value is listed as -71.8%.

Take `CC1CCN(S(=O)(=O)c2nnc(NC(=O)c3cccc([N+](=O)[O-])c3)s2)CC1`: the “hERG current change (%, negative = inhibition) at 10uM” value worked out at 16.4%.

In the case of `CCCNC(=O)c1cccc(COc2ccccc2OC)c1`, the “hERG current change (%, negative = inhibition) at 10uM” value was -5.92%.

Regarding `CCOc1ccc2oc(C(=O)NCc3ccccc3CN3CCCC3)c(C)c2c1`, the “hERG current change (%, negative = inhibition) at 10uM” value is -66.2%.

`Cc1cc(=O)oc2cc(OCC(=O)N3CCN(C(=O)c4ccco4)CC3)ccc12.Cl`: the “hERG current change (%, negative = inhibition) at 10uM” value is -32.6%.

In the case of `COc1ccc(CCCc2nnc(SCC(=O)Nc3cc(C)ccc3C)o2)cc1`, the “hERG current change (%, negative = inhibition) at 10uM” value was 0.676%.

For the compound `CN(C)CCCN(C(=O)c1ccc(S(=O)(=O)N2CCCCCC2)cc1)c1nc2c(F)cccc2s1.Cl`, the “hERG current change (%, negative = inhibition) at 10uM” value is -66.2%.

Turning to `CCOc1ccc(CCNC(=O)CCOc2cc(C)ccc2C)cc1OCC`, the “hERG current change (%, negative = inhibition) at 10uM” value was -1.15%.

Consider `CC(C(=O)Nc1ccc2c(c1)OCO2)N(c1ccc(Cl)cc1)S(C)(=O)=O` (centres unmarked), for which the “hERG current change (%, negative = inhibition) at 10uM” value was -31.8%.

Consider `COc1ccccc1Oc1nc(-c2ccccc2)cc(C)c1S(C)(=O)=O`, for which the “hERG current change (%, negative = inhibition) at 10uM” value is listed as -6.11%.

With `Cc1ccc(C(CNC(=O)Nc2ccccc2)N2CCN(C)CC2)cc1` (centres unmarked), the “hERG current change (%, negative = inhibition) at 10uM” value is on record as -28.9%.

For the compound `Cc1ccc(C)c(N2CCN(C(=O)CCS(=O)(=O)c3ccc4c(c3)NC(=O)CO4)CC2)c1`, the “hERG current change (%, negative = inhibition) at 10uM” value is -0.942%.

In the case of `CCN1CCN(c2cc(C)c3cc(NC(=S)N4CCCC4)ccc3n2)CC1`, the “hERG current change (%, negative = inhibition) at 10uM” value is given as -15.9%.

On to `CCC(C)N(C(=O)COC(=O)c1ccccc1SCC(=O)N1CCCC1)C1CCS(=O)(=O)C1` (centres unmarked), for which the “hERG current change (%, negative = inhibition) at 10uM” value came to 3.36%.

On to `CCOC(=O)c1sc(=S)sc1SCc1cccc(C(F)(F)F)c1`, for which the “hERG current change (%, negative = inhibition) at 10uM” value is 21.9%.

For the compound `CC(Oc1ccccc1F)C(=O)NNC(=O)c1ccc(F)c(S(=O)(=O)N2CCOCC2)c1` (centres unmarked), the “hERG current change (%, negative = inhibition) at 10uM” value was 0.308%.

For the compound `COC(=O)C1=CN(Cc2ccc(OC)c(OC)c2)C=C(C(=O)OC)C1c1ccc(F)cc1`, the “hERG current change (%, negative = inhibition) at 10uM” value is given as -3.86%.

`C=CCSc1nnc(NC(=O)Cc2ccc(OC)c(OC)c2)s1`: the “hERG current change (%, negative = inhibition) at 10uM” value is 11.7%.

Regarding `CCOc1ccc(S(=O)(=O)N(CC(=O)NN=C2CCN(C)CC2)c2ccc(C)cc2)cc1`, the “hERG current change (%, negative = inhibition) at 10uM” value is -12.3%.

`Oc1ccc(-c2nc3ccccn3c2NCc2ccc3c(c2)OCO3)cc1`: the “hERG current change (%, negative = inhibition) at 10uM” value is listed as -45.8%.

For `COc1ccc(N2CCN(C(=O)c3ccc4c(c3)NC(=O)C(CSCc3cccc(F)c3)N4)CC2)cc1` (centres unmarked), the “hERG current change (%, negative = inhibition) at 10uM” value turned out to be 13.8%.

Consider `CCOc1ccc(NC(=O)C2CC(C)=C(C)CC2C(=O)O)cc1` (centres unmarked), for which the “hERG current change (%, negative = inhibition) at 10uM” value is -6.91%.

On to `Cc1cc(=O)n2nc(N3CCC(C(=O)NCc4cccc(Br)c4)CC3)sc2n1`, for which the “hERG current change (%, negative = inhibition) at 10uM” value was -51.4%.

In the case of `CS(=O)(=O)N(CC(=O)N1CCCCC1)c1sc2c(c1C#N)CCCC2`, the “hERG current change (%, negative = inhibition) at 10uM” value is recorded as -18.4%.

With `Cc1cc2c(cc(C(=O)N3CCC(C(=O)NC4CCCC4)CC3)n2Cc2c(F)cccc2Cl)o1`, the “hERG current change (%, negative = inhibition) at 10uM” value was -30.1%.

As to `O=C(NNC(=O)c1csc(N2CCOCC2)n1)c1ccc(Cl)nc1`, the “hERG current change (%, negative = inhibition) at 10uM” value came to 1.67%.

On to `c1ccc(CCn2nnnc2C(c2cccnc2)N2CCOCC2)cc1` (centres unmarked), for which the “hERG current change (%, negative = inhibition) at 10uM” value was found to be 8.84%.

As for `COc1ccc(C(c2sc3nc(C)nn3c2O)N2CCN(Cc3ccccc3)CC2)cc1OC` (centres unmarked), the “hERG current change (%, negative = inhibition) at 10uM” value is reported as -18.3%.

As for `CC(C)=CCSc1nnc([C@@H](N)Cc2c[nH]c3ccccc23)o1.Cl`, the “hERG current change (%, negative = inhibition) at 10uM” value was determined as 12.1%.

As to `CC(=O)n1nc(-c2ccccc2)cc1-c1ccccc1`, the “hERG current change (%, negative = inhibition) at 10uM” value is reported as 0.851%.

`CC(=O)c1ccccc1OC(=O)COc1ccc([N+](=O)[O-])cc1`: the “hERG current change (%, negative = inhibition) at 10uM” value was 5.6%.

`CNCCC=C1c2ccccc2CCc2ccccc21.Cl`: the “hERG current change (%, negative = inhibition) at 10uM” value was -2.37%.

`CC(C)c1ccc(/C=N/NC(=O)C(=O)NCCCN2CCOCC2)cc1`: the “hERG current change (%, negative = inhibition) at 10uM” value is listed as -20.6%.

`CC[C@H](C)[C@H](NC(N)=O)C(=O)NCCc1ccc(Cl)cc1Cl`: the “hERG current change (%, negative = inhibition) at 10uM” value is on record as 14.3%.

Regarding `Cc1cc(-c2cc(C(=O)O)c3ccccc3n2)c(C)s1`, the “hERG current change (%, negative = inhibition) at 10uM” value stood at 26.4%.

For the compound `CCOc1ccc(N=c2cc(-c3ccc(OC)cc3)oc3ccccc23)cc1`, the “hERG current change (%, negative = inhibition) at 10uM” value is -2.16%.

In the case of `CC(C)Cn1c(=O)c2ccccc2n2c(CCC(=O)NCC3CCCO3)nnc12` (centres unmarked), the “hERG current change (%, negative = inhibition) at 10uM” value was determined as 11.2%.

In the case of `CCCS(=O)(=O)c1c(S(=O)(=O)CCC)c2c(C)cccn2c1C(N)=O`, the “hERG current change (%, negative = inhibition) at 10uM” value was 0.725%.

Take `CCOC(=O)C1CCN(S(=O)(=O)c2ccc3c(c2)CCN3C(C)=O)CC1`: the “hERG current change (%, negative = inhibition) at 10uM” value is -2.33%.

For `COc1ccc(CNC(=O)C(C)N(Cc2ccco2)C(=O)c2snc(C(N)=O)c2N)cc1` (centres unmarked), the “hERG current change (%, negative = inhibition) at 10uM” value was -32.9%.

In the case of `O=S(=O)(c1cccs1)N1CCc2ccccc21`, the “hERG current change (%, negative = inhibition) at 10uM” value is 8.51%.

For the compound `Cc1c(C(=O)NCCc2ccc(Cl)cc2)sc2nc3n(c(=O)c12)CCC3`, the “hERG current change (%, negative = inhibition) at 10uM” value is -21.5%.
